A number of entries come with more than one value. This list holds those alone.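 How the source made its calls: active means IC50 below 50 µM, and active in both the human and murine receptor assays; inactive means the rest.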 The source may hold further records. The records of an entry repeat one measurement in other runs, samples, wells, individuals or studies. Marks in square brackets tell the records apart. The letters are not those of the source and start again with each entry.
Target: C-X-C chemokine receptor type 6 (Mus musculus) (UniProt Q9EQ16)
Sequence of UniProt Q9EQ16 (Q9EQ16 whole entry, looked up): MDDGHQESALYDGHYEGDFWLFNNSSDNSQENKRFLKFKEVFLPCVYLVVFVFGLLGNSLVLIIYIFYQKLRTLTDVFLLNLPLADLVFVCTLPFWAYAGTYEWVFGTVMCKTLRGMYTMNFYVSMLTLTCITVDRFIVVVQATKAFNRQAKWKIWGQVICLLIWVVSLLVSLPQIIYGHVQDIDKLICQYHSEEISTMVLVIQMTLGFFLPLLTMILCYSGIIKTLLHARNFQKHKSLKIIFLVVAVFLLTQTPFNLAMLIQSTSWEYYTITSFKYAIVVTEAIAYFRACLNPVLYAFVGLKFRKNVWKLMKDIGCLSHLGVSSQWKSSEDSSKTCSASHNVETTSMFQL
Experiment: antagonism of murine CXCR6 beta-arrestin recruitment – cell-based, mouse ortholog, CHO-K1, luminescence, selectivity assay for human CXCR6 antagonist project, SAR follow-up (AID 651940)
Details: CHO-K1 mCXCR6 beta-arrestin PathHunter

COc1cc(C(=O)NC2CC3CCCC(C2)N3CC(=O)Nc2ccccc2Cl)cc(OC)c1OC (stereo unspecified)
IC50: inactive [sample A] and 18.2 µM [sample B]

— PubChem BioAssay AID651940 (Sanford-Burnham Center for Chemical Genomics, 2012)
